# The supplement of paper PMC8728848
# The list shows a part of the results.
# Key:
# Assay in all cases: glycan array binding signal (z-score within array); higher = stronger binding
# Conditions in all cases: glycan notation: IUPAC condensed, linker removed
# [1] = molecular target: Neu5Ac(a2-6)Gal(b1-4)GlcNAc(b1-2)Man(a1-3)[Man(a1-6)]Man(b1-4)GlcNAc(b1-4)GlcNAc
# Procedure, shortened: (§1)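 The binding signal is a Z-score computed within each array and averaged over linkers. Arrays of the same protein sequence at different concentrations or buffers were also averaged together. Data originate from 3228 arrays in the Consortium for Functional Glycomics database, kept only where the protein sequence was available.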
# [2] = molecular target: Neu5Ac(a2-6)Gal(b1-4)GlcNAc(b1-2)Man(a1-3)[Neu5Ac(a2-3)Gal(b1-4)GlcNAc(b1-2)Man(a1-6)]Man(b1-4)GlcNAc(b1-4)GlcNAc
# Procedure, shortened: as §1
# [3] = molecular target: Neu5Ac(a2-6)Gal(b1-4)GlcNAc(b1-2)Man(a1-3)[Neu5Ac(a2-6)Gal(b1-4)GlcNAc(b1-2)Man(a1-6)]Man(b1-4)GlcNAc(b1-4)GlcNAc
# Procedure, shortened: as §1
# [4] = molecular target: Neu5Ac(a2-6)Gal(b1-4)GlcNAc(b1-2)Man(a1-3)[Neu5Ac(a2-6)Gal(b1-4)GlcNAc(b1-2)Man(a1-6)]Man(b1-4)GlcNAc(b1-4)[Fuc(a1-6)]GlcNAc
# Procedure, shortened: as §1
# [5] = molecular target: Neu5Ac(a2-6)Gal(b1-4)GlcNAc(b1-2)Man(a1-6)Man(b1-4)GlcNAc(b1-4)GlcNAc
# Procedure, shortened: as §1
# [6] = molecular target: Neu5Ac(a2-6)Gal(b1-4)GlcNAc(b1-2)Man(a1-6)[Gal(b1-4)GlcNAc(b1-2)Man(a1-3)]Man(b1-4)GlcNAc(b1-4)GlcNAc
# Procedure, shortened: as §1
# [7] = molecular target: Neu5Ac(a2-6)Gal(b1-4)GlcNAc(b1-2)Man(a1-6)[GlcNAc(b1-2)Man(a1-3)]Man(b1-4)GlcNAc(b1-4)GlcNAc
# Procedure, shortened: as §1
# [8] = molecular target: Neu5Ac(a2-6)Gal(b1-4)GlcNAc(b1-2)Man(a1-6)[Man(a1-3)]Man(b1-4)GlcNAc(b1-4)GlcNAc
# Procedure, shortened: as §1
# [9] = molecular target: Neu5Ac(a2-6)Gal(b1-4)GlcNAc(b1-2)[Neu5Ac(a2-6)Gal(b1-4)GlcNAc(b1-4)]Man(a1-3)[GlcNAc(b1-4)][Neu5Ac(a2-6)Gal(b1-4)GlcNAc(b1-2)[Neu5Ac(a2-6)Gal(b1-4)GlcNAc(b1-6)]Man(a1-6)]Man(b1-4)GlcNAc(b1-4)GlcNAc
# Procedure, shortened: as §1
# [10] = molecular target: Neu5Ac(a2-6)Gal(b1-4)GlcNAc(b1-2)[Neu5Ac(a2-6)Gal(b1-4)GlcNAc(b1-4)]Man(a1-3)[GlcNAc(b1-4)][Neu5Ac(a2-6)Gal(b1-4)GlcNAc(b1-4)Man(a1-6)]Man(b1-4)GlcNAc(b1-4)GlcNAc
# Procedure, shortened: as §1
# [11] = molecular target: Neu5Ac(a2-6)Gal(b1-4)GlcNAc(b1-2)[Neu5Ac(a2-6)Gal(b1-4)GlcNAc(b1-6)]Man(a1-6)[Neu5Ac(a2-6)Gal(b1-4)GlcNAc(b1-2)Man(a1-3)][GlcNAc(b1-4)]Man(b1-4)GlcNAc(b1-4)GlcNAc
# Procedure, shortened: as §1
# [12] = molecular target: Neu5Ac(a2-6)Gal(b1-4)GlcNAc(b1-3)Gal(b1-3)GlcNAc
# Procedure, shortened: as §1
# [13] = molecular target: Neu5Ac(a2-6)Gal(b1-4)GlcNAc(b1-3)Gal(b1-4)GlcNAc
# Procedure, shortened: as §1
# [14] = molecular target: Neu5Ac(a2-6)Gal(b1-4)GlcNAc(b1-3)Gal(b1-4)GlcNAc(b1-2)Man(a1-3)[Neu5Ac(a2-6)Gal(b1-4)GlcNAc(b1-3)Gal(b1-4)GlcNAc(b1-2)Man(a1-6)]GalNAc
# Procedure, shortened: as §1
# [15] = molecular target: Neu5Ac(a2-6)Gal(b1-4)GlcNAc(b1-3)Gal(b1-4)GlcNAc(b1-3)Gal(b1-4)GlcNAc
# Procedure, shortened: as §1
# [16] = molecular target: Neu5Ac(a2-6)Gal(b1-4)GlcNAc(b1-3)Gal(b1-4)GlcNAc(b1-3)Gal(b1-4)GlcNAc(b1-2)Man(a1-3)[Neu5Ac(a2-6)Gal(b1-4)GlcNAc(b1-3)Gal(b1-4)GlcNAc(b1-3)Gal(b1-4)GlcNAc(b1-2)Man(a1-6)]GalNAc
# Procedure, shortened: as §1
# [17] = molecular target: Neu5Ac(a2-6)Gal(b1-4)GlcNAc(b1-3)Gal(b1-4)GlcNAc(b1-3)GalNAc
# Procedure, shortened: as §1
# [18] = molecular target: Neu5Ac(a2-6)Gal(b1-4)GlcNAc(b1-3)Gal(b1-4)GlcNAc(b1-3)[Neu5Ac(a2-6)Gal(b1-4)GlcNAc(b1-3)Gal(b1-4)GlcNAc(b1-6)]GalNAc
# Procedure, shortened: as §1
# [19] = molecular target: Neu5Ac(a2-6)Gal(b1-4)GlcNAc(b1-3)Gal(b1-4)GlcNAc(b1-6)[Gal(b1-3)]GalNAc
# Procedure, shortened: as §1
# [20] = molecular target: Neu5Ac(a2-6)Gal(b1-4)GlcNAc(b1-3)Gal(b1-4)[Fuc(a1-3)]GlcNAc(b1-3)Gal(b1-4)[Fuc(a1-3)]GlcNAc
# Procedure, shortened: as §1
# [21] = molecular target: Neu5Ac(a2-6)Gal(b1-4)GlcNAc(b1-3)GalNAc
# Procedure, shortened: as §1
# [22] = molecular target: Neu5Ac(a2-6)Gal(b1-4)GlcNAc(b1-3)[Neu5Ac(a2-6)Gal(b1-4)GlcNAc(b1-6)]GalNAc
# Procedure, shortened: as §1
# [23] = molecular target: Neu5Ac(a2-6)Gal(b1-4)GlcNAc(b1-6)GalNAc
# Procedure, shortened: as §1
# [24] = molecular target: Neu5Ac(a2-6)Gal(b1-4)GlcNAc(b1-6)[Gal(b1-3)GlcNAc(b1-3)]Gal(b1-4)Glc
# Procedure, shortened: as §1
# [25] = molecular target: Neu5Ac(a2-6)Gal(b1-4)GlcNAc(b1-6)[Gal(b1-3)]GalNAc
# Procedure, shortened: as §1
# [26] = molecular target: Neu5Ac(a2-6)Gal(b1-4)GlcNAc6S
# Procedure, shortened: as §1
# Neu5Ac(a2-6)GalNAc = molecular target: Neu5Ac(a2-6)GalNAc
# Procedure, shortened: as §1
# [27] = molecular target: Neu5Ac(a2-6)GalNAc(b1-4)GlcNAc
# Procedure, shortened: as §1
# [28] = molecular target: Neu5Ac(a2-6)GalNAc(b1-4)GlcNAc6S
# Procedure, shortened: as §1
# [29] = molecular target: Neu5Ac(a2-6)GlcNAc(b1-4)GlcNAc
# Procedure, shortened: as §1
# [30] = molecular target: Neu5Ac(a2-6)GlcNAc(b1-4)GlcNAc(b1-4)GlcNAc
# Procedure, shortened: as §1
binder,measurement,setting,value
B160 (Bifidobacterium sp) (protein) MVSHNKRIVAALAAVAAMGIGLAGCGGSDTAGDTKSGSDGGVVNITYMHRLPDSEGMTLVNDIVAKWNKEHPNIQVKATKFDGNAADMIKKLETDVKAGNAPDLAQVGYAEVPEVFTKGLLQDVTDEAAKYKDDFASGPFALMQVDGKTYGLPQDTGPLTYFYNAAEFEKLGITVPKTADELIETAKKTAAQGKYIMTFTPDEAMMMMSGQAGASGPWYKVDGNSWVVNTQTKGSKAVADVYQQLIDNKAALTNPRWDASFDNSIQSGQLIGTVAAAWEAPLFIDSAGGTGAGEWKVTQLGDWFGNGTKTGANGGSGVAVLKGSKHPAEAMEFLDWFNTQVDDLVSQGLVVAATTADAKTPQKWSDYFSGQDVMAEFKTANDNMGDFTYMPGFSAVGAAMKQTAAKAADGSAKVSDVFDTAQKTSVDTLKNLGLSVKE,glycan array binding signal (z-score),[1],-0.165
same,glycan array binding signal (z-score),[2],-0.181
same,glycan array binding signal (z-score),[3],-0.16
same,glycan array binding signal (z-score),[4],-0.141
same,glycan array binding signal (z-score),[5],-0.163
same,glycan array binding signal (z-score),[6],-0.136
same,glycan array binding signal (z-score),[7],-0.184
same,glycan array binding signal (z-score),[8],-0.173
same,glycan array binding signal (z-score),[9],-0.141
same,glycan array binding signal (z-score),[10],-0.17
same,glycan array binding signal (z-score),[11],-0.14
same,glycan array binding signal (z-score),[12],-0.179
same,glycan array binding signal (z-score),[13],-0.175
same,glycan array binding signal (z-score),[14],-0.158
same,glycan array binding signal (z-score),[15],-0.145
same,glycan array binding signal (z-score),[16],-0.109
same,glycan array binding signal (z-score),[17],-0.192
same,glycan array binding signal (z-score),[18],-0.125
same,glycan array binding signal (z-score),[19],-0.105
same,glycan array binding signal (z-score),[20],-0.147
same,glycan array binding signal (z-score),[21],-0.155
same,glycan array binding signal (z-score),[22],-0.144
same,glycan array binding signal (z-score),[23],-0.135
same,glycan array binding signal (z-score),[24],-0.178
same,glycan array binding signal (z-score),[25],-0.169
same,glycan array binding signal (z-score),[26],-0.187
same,glycan array binding signal (z-score),Neu5Ac(a2-6)GalNAc,-0.174
same,glycan array binding signal (z-score),[27],-0.167
same,glycan array binding signal (z-score),[28],-0.122
same,glycan array binding signal (z-score),[29],-0.175
same,glycan array binding signal (z-score),[30],-0.17
